{
  "source": "paper PMC4336329",
  "about": "(PLoS ONE, 2015)",
  "note": "About 14,000 (4.5%) of roughly 310,000 compounds showed an effect of 50% or more. Effects have a minus sign here. The list shows a part of the results.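 Also: peak tail current of the secondary pulse compared with the same well before compound.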",
  "data": [
    {"biological_target": "human ether-à-go-go-related gene (hERG) potassium channel (human, UniProt Q12809)", "sequence (Q12809 whole entry, looked up)": "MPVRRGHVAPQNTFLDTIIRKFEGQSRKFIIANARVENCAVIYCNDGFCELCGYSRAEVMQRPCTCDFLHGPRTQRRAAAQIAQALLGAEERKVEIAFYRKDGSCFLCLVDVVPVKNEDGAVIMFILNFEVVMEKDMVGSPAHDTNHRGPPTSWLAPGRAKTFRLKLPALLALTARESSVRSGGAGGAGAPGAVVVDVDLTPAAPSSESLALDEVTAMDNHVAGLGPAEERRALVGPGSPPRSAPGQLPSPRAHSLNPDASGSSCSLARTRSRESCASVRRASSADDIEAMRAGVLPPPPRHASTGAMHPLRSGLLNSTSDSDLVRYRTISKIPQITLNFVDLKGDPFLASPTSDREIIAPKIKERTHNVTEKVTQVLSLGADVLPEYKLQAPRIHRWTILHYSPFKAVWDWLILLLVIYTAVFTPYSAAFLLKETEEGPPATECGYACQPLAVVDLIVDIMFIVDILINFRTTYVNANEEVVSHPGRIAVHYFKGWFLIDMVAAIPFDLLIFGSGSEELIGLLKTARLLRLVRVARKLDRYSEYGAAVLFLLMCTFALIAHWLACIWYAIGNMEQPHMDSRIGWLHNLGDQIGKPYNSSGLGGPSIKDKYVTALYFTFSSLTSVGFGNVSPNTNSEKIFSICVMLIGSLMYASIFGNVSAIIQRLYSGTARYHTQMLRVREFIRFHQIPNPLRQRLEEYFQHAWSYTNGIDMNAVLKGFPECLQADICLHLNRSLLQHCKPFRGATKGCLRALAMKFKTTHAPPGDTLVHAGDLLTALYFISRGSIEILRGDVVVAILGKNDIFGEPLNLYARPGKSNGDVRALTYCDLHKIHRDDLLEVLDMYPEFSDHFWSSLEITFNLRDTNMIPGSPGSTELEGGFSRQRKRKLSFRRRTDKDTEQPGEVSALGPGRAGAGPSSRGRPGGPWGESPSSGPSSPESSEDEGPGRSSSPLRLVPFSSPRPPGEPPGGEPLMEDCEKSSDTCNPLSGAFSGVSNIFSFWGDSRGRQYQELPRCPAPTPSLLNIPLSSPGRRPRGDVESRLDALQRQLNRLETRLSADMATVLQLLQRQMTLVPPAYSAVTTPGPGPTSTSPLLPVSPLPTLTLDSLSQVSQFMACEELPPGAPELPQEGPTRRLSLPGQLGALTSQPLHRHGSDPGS", "test": "primary screen, population patch clamp on CHO cells stably expressing hERG", "units": {"hERG current change (%, negative = inhibition) at 10uM": "%"}, "values": [
      {"smiles": "Brc1ccccc1-n1nnc(-c2cnc3ccccc3c2)n1", "hERG current change (%, negative = inhibition) at 10uM": 14.9},
      {"smiles": "CCC1(c2ccccc2)NC(=O)N(CC(=O)N(C)CC(=O)Nc2cccc(OC)c2)C1=O", "note": "(stereo not shown)", "hERG current change (%, negative = inhibition) at 10uM": 13.2},
      {"smiles": "Cc1nc2ccc(S(=O)(=O)NCC(=O)NCCN3CCCCCC3)cc2s1", "hERG current change (%, negative = inhibition) at 10uM": 20},
      {"smiles": "COc1ccc(NC(=O)CN(C)S(=O)(=O)c2ccc(Cl)cc2)c([N+](=O)[O-])c1", "hERG current change (%, negative = inhibition) at 10uM": 3.1},
      {"smiles": "COc1ccc(CCNC(=S)NC(=O)c2cccc(Cl)c2)cc1OC", "hERG current change (%, negative = inhibition) at 10uM": 1.73},
      {"smiles": "CCOC(=O)c1ccc(N2C(=O)c3n[nH]c(C)c3C2c2ccc(OC)cc2OC)cc1", "note": "(stereo not shown)", "hERG current change (%, negative = inhibition) at 10uM": -7.21},
      {"smiles": "Cc1c(Br)c(=O)oc2c(Br)c(O)ccc12", "hERG current change (%, negative = inhibition) at 10uM": 19.9},
      {"smiles": "Cn1c2ccccc2c2cc(/C=N/NC(=O)c3ccc(O)cc3O)ccc21", "hERG current change (%, negative = inhibition) at 10uM": 21.3},
      {"smiles": "C[N+]1(CCC(=O)c2ccccc2)CCCCC1.[I-]", "hERG current change (%, negative = inhibition) at 10uM": 10.8},
      {"smiles": "CCN(CC)C(=O)CSC1=C(C#N)C(c2ccco2)C(C(=O)OCCOC)=C(C)N1", "note": "(stereo not shown)", "hERG current change (%, negative = inhibition) at 10uM": 10.5},
      {"smiles": "COc1ccc(CN2CCCN(S(=O)(=O)c3ccc(Br)cc3)CC2)cc1", "hERG current change (%, negative = inhibition) at 10uM": -74.4},
      {"smiles": "Cn1c(=O)oc2cc(S(=O)(=O)NCCC(=O)NCCc3ccc(Cl)cc3)ccc21", "hERG current change (%, negative = inhibition) at 10uM": -16.7},
      {"smiles": "CCN(CC(=O)NC)S(=O)(=O)c1ccc(Br)cc1", "hERG current change (%, negative = inhibition) at 10uM": 15.3},
      {"smiles": "CCCC(C)C(=O)Nc1ccc(NC(C)=O)cc1", "note": "(stereo not shown)", "hERG current change (%, negative = inhibition) at 10uM": 11.5},
      {"smiles": "COc1ccc2nc(NC(=O)C3CCCN(S(=O)(=O)c4cccs4)C3)sc2c1", "note": "(stereo not shown)", "hERG current change (%, negative = inhibition) at 10uM": 13},
      {"smiles": "O=C(NC1CCCC1)c1cc2nc(-c3ccccc3)cc(-c3ccccc3)n2n1", "hERG current change (%, negative = inhibition) at 10uM": -23.3},
      {"smiles": "CN(C)CCOc1ccccc1C(C)(C)C.O=C(O)C(=O)O", "hERG current change (%, negative = inhibition) at 10uM": 5.47},
      {"smiles": "Cc1nn(C(C)C(=O)N2CCOCC2)c(C)c1[N+](=O)[O-]", "note": "(stereo not shown)", "hERG current change (%, negative = inhibition) at 10uM": 4.08},
      {"smiles": "CN1CC=C2C(C#N)=C(N)C(C#N)(C#N)C(c3ccncc3)C2C1", "note": "(stereo not shown)", "hERG current change (%, negative = inhibition) at 10uM": 14.4},
      {"smiles": "CNC(=O)c1sccc1-n1cccc1", "hERG current change (%, negative = inhibition) at 10uM": 1.52},
      {"smiles": "CCOc1ccc(CCNC(=O)COC(=O)c2ccccc2O)cc1OCC", "hERG current change (%, negative = inhibition) at 10uM": -17.5},
      {"smiles": "O=C(c1ccc(OC2CCN(C/C=C/c3ccc(F)cc3)CC2)cc1)N1CCCC1", "hERG current change (%, negative = inhibition) at 10uM": -75.5},
      {"smiles": "CN(C(=O)CCc1nnc(CCCCc2ccccc2)o1)C1CCOCC1", "hERG current change (%, negative = inhibition) at 10uM": -7.51},
      {"smiles": "COc1ccc(NC(=O)COc2ccc(C)c(C)c2)cc1S(=O)(=O)N1CCCCC1", "hERG current change (%, negative = inhibition) at 10uM": -13.5},
      {"smiles": "O=[N+]([O-])c1ccccc1/C=C/CN1CCCCC1", "hERG current change (%, negative = inhibition) at 10uM": -6.44},
      {"smiles": "CCc1ccc(N2C(=O)CN(CC(=O)OC)C2=S)cc1", "hERG current change (%, negative = inhibition) at 10uM": 9.74},
      {"smiles": "CC[N+](C)(C)Cc1ccccc1Br.Cc1ccc(S(=O)(=O)[O-])cc1", "hERG current change (%, negative = inhibition) at 10uM": 21.3},
      {"smiles": "Cn1nnnc1SCC(=O)NNC(=O)c1ccc(Br)cc1", "hERG current change (%, negative = inhibition) at 10uM": 7.32},
      {"smiles": "CC(/C=C/c1ccc2c(c1)OCO2)=N\\NC(=O)c1cccc([N+](=O)[O-])c1", "hERG current change (%, negative = inhibition) at 10uM": -3.5},
      {"smiles": "CCC(C)C(=O)Nc1ccc(S(=O)(=O)N2CCCC2)cc1", "note": "(stereo not shown)", "hERG current change (%, negative = inhibition) at 10uM": 19.5},
      {"smiles": "Cc1[nH]c(C)c(S(=O)(=O)NCCc2ccccc2)c1C(=O)N1CCCCC1", "hERG current change (%, negative = inhibition) at 10uM": -8.31},
      {"smiles": "CC(C(=O)N1CCOCC1)c1ccccc1", "note": "(stereo not shown)", "hERG current change (%, negative = inhibition) at 10uM": 16.5},
      {"smiles": "CN(C)C(=O)N1CCC(C(=O)NCc2cccs2)CC1", "hERG current change (%, negative = inhibition) at 10uM": 6.81},
      {"smiles": "O=C(COC(=O)CSc1ccc([N+](=O)[O-])cc1)NCc1cccs1", "hERG current change (%, negative = inhibition) at 10uM": 2.31},
      {"smiles": "NC(=O)[C@H](Cc1cc2ccccc2s1)NC(=O)[C@@H]1CC2(CC(c3cccc(NC(=O)[C@@H]4CCC(=O)N4)c3)=NO2)CN1C(=O)/C=C/c1c(F)cccc1Cl", "note": "(stereo partly shown)", "hERG current change (%, negative = inhibition) at 10uM": 8.52},
      {"smiles": "CC12CN3CC(C)(CN(C1)C3c1ccc(Br)cc1)C2", "note": "(stereo not shown)", "hERG current change (%, negative = inhibition) at 10uM": -34.6},
      {"smiles": "CC1C(=O)CC(c2ccccc2)N(C)C1c1ccccc1", "note": "(stereo not shown)", "hERG current change (%, negative = inhibition) at 10uM": -4.45},
      {"smiles": "NS(=O)(=O)c1ccc(CCNC(=O)CCCC2=NS(=O)(=O)c3ccccc3N2)cc1", "hERG current change (%, negative = inhibition) at 10uM": 25.6},
      {"smiles": "Cc1ccc(C(=O)NNC(=O)C(C)Sc2nc(N)cc(N)n2)cc1", "note": "(stereo not shown)", "hERG current change (%, negative = inhibition) at 10uM": -5.97},
      {"smiles": "CC(C)c1cc(O)c(-c2ccccc2)c(=O)n1-c1ccc(Cl)cc1", "hERG current change (%, negative = inhibition) at 10uM": 7.93},
      {"smiles": "Fc1cccc(CSc2ccc(-c3ccco3)nn2)c1", "hERG current change (%, negative = inhibition) at 10uM": 6.59},
      {"smiles": "Cc1c(Cl)cccc1NC(=O)Nc1ccn(C)n1", "hERG current change (%, negative = inhibition) at 10uM": 5.52},
      {"smiles": "O=C(CCC(=O)N/N=C/c1cc(Cl)cc(Cl)c1O)NCc1ccccc1", "hERG current change (%, negative = inhibition) at 10uM": 16.9}
    ]}
  ]
}
